Measurements reported in the supplement of paper PMC10126150.
Sequences with one replicate were seen in a single cluster, so their values are uncertain.
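Also: ATP exposure 15 min at 22 °C before imaging.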

Each sequence was assayed on ATP (assay: switch fluorescence ratio, 500 uM ATP over buffer (Cy3 cluster intensity, sum of 5 cycles each) (fold (ratio)); higher = stronger signal-on switching upon ATP binding; sequences stand for … in TCGTCGGCAGCGTCAGATGTGTATAAGAGACAGTTTTTTTTTTTTTTTTTTTTTTTTT…TC). Conditions: aptamer strand: ATP DNA aptamer (quencher-CACCTGGGGGAGTATTGCGGAGGAAGG + anchor), 100 nM annealed; ATP concentration: 500 uM; one replicate.
Method in brief: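 Cy3-labelled switching-strand clusters on a modified Illumina MiSeq flow-cell were annealed to 100 nM quencher-labelled ATP aptamer and imaged first in selection buffer, then after 15 min with 500 uM ATP at 22 °C. NaOH stripping and re-annealing separated each of five buffer/ATP cycles, and clusters outside 100-1000 RFU were excluded. The fluorescence ratio sums target-cycle Cy3 intensity over buffer-cycle Cy3 intensity per cluster and averages it per switch-domain sequence.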
Sequence CAATTTATTC has a switch fluorescence ratio of 1.02.
TCACTGACTA was tested, and the switch fluorescence ratio was 1.2.
GTTTAGCAAT showed a switch fluorescence ratio of 1.68.
With TAGCAACCTC the switch fluorescence ratio was 1.56.
In the case of AAACCCATAC, the switch fluorescence ratio is reported as 1.46.
GGCACTTGGC was tested, and the switch fluorescence ratio was 1.08.
In the case of ACTTATGCGC, the switch fluorescence ratio is reported as 1.02.
Sequence TTACGGTGA has a switch fluorescence ratio of 0.994.
CGTTCCCAGC gave a switch fluorescence ratio of 1.3.
Sequence CCGCTTATCA has a switch fluorescence ratio of 1.36.
ATACCGCTGT gave a switch fluorescence ratio of 1.13.
Sequence CTAAATTGCT has a switch fluorescence ratio of 0.986.
With CCAACCGATA the switch fluorescence ratio was 1.38.
In the case of TTAGAAACC, the switch fluorescence ratio is reported as 0.992.
AGGGTAGAAA showed a switch fluorescence ratio of 1.03.
With CGGCATTCTT the switch fluorescence ratio was 0.991.
TAAATATTAC gave a switch fluorescence ratio of 0.993.
In the case of CGATCATCT, the switch fluorescence ratio is reported as 1.02.
GAATGACATG was tested, and the switch fluorescence ratio was 0.986.
ATATTATAGA showed a switch fluorescence ratio of 1.05.
Sequence CAATCGATGC has a switch fluorescence ratio of 0.969.
For GATGGATAG, the switch fluorescence ratio was 1.01.
ATATAGAGGC gave a switch fluorescence ratio of 1.06.
For TTGAATAATT, the switch fluorescence ratio was 1.
For GACGGCCTTC, the switch fluorescence ratio was 1.02.
For AGGTCTGCG, the switch fluorescence ratio was 1.01.
TTGCTCCCTT showed a switch fluorescence ratio of 1.03.
TTGTTATGGA was tested, and the switch fluorescence ratio was 1.01.
Sequence CATGATAGCC has a switch fluorescence ratio of 0.933.
Sequence AATCTTTTT has a switch fluorescence ratio of 0.995.
With TCTGTGTCCA the switch fluorescence ratio was 1.04.
For GCGCCCAGGG, the switch fluorescence ratio was 1.06.
GTGACTTTTG was tested, and the switch fluorescence ratio was 1.
With CCATGAATGT the switch fluorescence ratio was 1.03.
GGCCGACCGC showed a switch fluorescence ratio of 1.4.
For AATAGATTGA, the switch fluorescence ratio was 1.02.
In the case of GGTCCATATC, the switch fluorescence ratio is reported as 0.989.
Sequence TGCACGCATG has a switch fluorescence ratio of 1.04.
Work on AAGTGGTAAT yielded a switch fluorescence ratio of 0.982.
ATCCGATTTA was tested, and the switch fluorescence ratio was 0.981.
For TAGATAGGA, the switch fluorescence ratio was 0.993.
CAAACGGAGA was tested, and the switch fluorescence ratio was 0.983.
TGTAACGACA was tested, and the switch fluorescence ratio was 1.04.
CAGGGCGTTG was tested, and the switch fluorescence ratio was 1.
Sequence GTGCGTTGGC has a switch fluorescence ratio of 0.982.
In the case of GAATTGAGTT, the switch fluorescence ratio is reported as 1.01.
For AGCTACTTAG, the switch fluorescence ratio was 1.07.
GAACGTCACT was tested, and the switch fluorescence ratio was 1.81.
With CCATCCTTGG the switch fluorescence ratio was 1.05.
CCGCGAGGGA gave a switch fluorescence ratio of 1.08.
With ATAGGGTAGT the switch fluorescence ratio was 1.02.
In the case of TTTCGCTACA, the switch fluorescence ratio is reported as 0.967.
CTAGTCCTCG was tested, and the switch fluorescence ratio was 0.985.
TTGTGGCACT gave a switch fluorescence ratio of 0.988.
GTTTTATGCA was tested, and the switch fluorescence ratio was 0.974.
In the case of CTCGTCCCTG, the switch fluorescence ratio is reported as 1.
TGATTGTGTG gave a switch fluorescence ratio of 1.05.
TGTTGACACC was tested, and the switch fluorescence ratio was 1.03.
With TAACTTCTG the switch fluorescence ratio was 1.06.
With AAGACAGGTT the switch fluorescence ratio was 1.03.
In the case of CACAATCGTT, the switch fluorescence ratio is reported as 0.999.
TGTTAAAGAG was tested, and the switch fluorescence ratio was 1.01.
With TTGATCACCT the switch fluorescence ratio was 1.16.
Work on TGAACACACT yielded a switch fluorescence ratio of 1.19.
For ACGTGTGGG, the switch fluorescence ratio was 0.996.
For AGTATGATAC, the switch fluorescence ratio was 1.08.
With TAGAAGGCGT the switch fluorescence ratio was 0.967.
Sequence AGATTTGTAC has a switch fluorescence ratio of 1.06.
Work on CTTGAGCAGA yielded a switch fluorescence ratio of 1.13.
For TCAAAGGGTT, the switch fluorescence ratio was 1.04.
GAATAATCCT showed a switch fluorescence ratio of 1.13.
TGTCATATGT gave a switch fluorescence ratio of 1.06.
CTGTTTGGTG was tested, and the switch fluorescence ratio was 0.95.
Sequence TTCTGCCCTT has a switch fluorescence ratio of 1.12.
GCCAAATTCC showed a switch fluorescence ratio of 1.06.
CTCGAAATTT showed a switch fluorescence ratio of 0.989.
CCACCTAACT gave a switch fluorescence ratio of 1.13.
Sequence TTGCCCTTTA has a switch fluorescence ratio of 0.968.
CGTCTAGAGT was tested, and the switch fluorescence ratio was 0.957.
AGTCATAGTA was tested, and the switch fluorescence ratio was 1.02.
CGAGTACATT gave a switch fluorescence ratio of 1.03.
In the case of CACGGCAGTG, the switch fluorescence ratio is reported as 0.986.
With CAGAGGTTGG the switch fluorescence ratio was 0.987.
Work on TTGTGAGTCA yielded a switch fluorescence ratio of 0.952.
Sequence TTGTCATGTA has a switch fluorescence ratio of 0.998.
With CCGGCGTGCT the switch fluorescence ratio was 1.06.
ATATGCAAAA showed a switch fluorescence ratio of 1.02.
In the case of CTTTTTTCCG, the switch fluorescence ratio is reported as 1.04.
TTATGTGTTA was tested, and the switch fluorescence ratio was 0.956.
Work on TAGATGGTCC yielded a switch fluorescence ratio of 1.04.
Work on GGGGCATTAC yielded a switch fluorescence ratio of 3.45.
For GCAACTGCGA, the switch fluorescence ratio was 1.11.
CTTAACACTG was tested, and the switch fluorescence ratio was 0.998.
Work on GGGTAGCGGT yielded a switch fluorescence ratio of 1.01.
Work on TGCTCTGAAG yielded a switch fluorescence ratio of 1.01.
With CGCTGAATCT the switch fluorescence ratio was 1.04.
For ATACTGCGAA, the switch fluorescence ratio was 1.05.
CCGGTCAGGT gave a switch fluorescence ratio of 1.11.
TCTAGGGGT showed a switch fluorescence ratio of 1.02.
Sequence AACGAGGTTG has a switch fluorescence ratio of 0.994.
For AGTACGTCCC, the switch fluorescence ratio was 1.04.
GAAAGCCCAA was tested, and the switch fluorescence ratio was 1.03.
In the case of CGAGGGACT, the switch fluorescence ratio is reported as 1.65.
For AAGCATGCGT, the switch fluorescence ratio was 0.94.
Work on CCCTTGCTTG yielded a switch fluorescence ratio of 1.03.
CACTACGACA showed a switch fluorescence ratio of 1.25.
TATCTTCTAG was tested, and the switch fluorescence ratio was 1.03.
For CTCAGCACTG, the switch fluorescence ratio was 1.38.
Sequence CTTTGCAGTA has a switch fluorescence ratio of 1.31.
With CAGGACCCAC the switch fluorescence ratio was 1.41.
With AGTCTCCCCC the switch fluorescence ratio was 1.79.
CTATAACCTG gave a switch fluorescence ratio of 1.18.
TATATCCGCT gave a switch fluorescence ratio of 1.09.
Sequence CCCGGGCCAG has a switch fluorescence ratio of 1.06.
CCGTACCGTG showed a switch fluorescence ratio of 1.09.
TTCAGGGTGT was tested, and the switch fluorescence ratio was 1.17.
In the case of CACTTCGTAT, the switch fluorescence ratio is reported as 1.
Work on GCAATGGTCG yielded a switch fluorescence ratio of 1.17.
Work on AATATGTGCG yielded a switch fluorescence ratio of 1.05.
GCACAGGAGT gave a switch fluorescence ratio of 1.17.
With AAAATTTGCC the switch fluorescence ratio was 1.03.
CATATTCT gave a switch fluorescence ratio of 0.994.
For TTTCTAGGCG, the switch fluorescence ratio was 1.03.
With TATCGTAGTA the switch fluorescence ratio was 0.987.
ACGTAGCTGG showed a switch fluorescence ratio of 1.17.
For TAAACTCGTA, the switch fluorescence ratio was 1.03.
Work on GCCACCGGAT yielded a switch fluorescence ratio of 1.08.
With GGAGCTTCGG the switch fluorescence ratio was 0.96.
Sequence GGATTATATG has a switch fluorescence ratio of 0.978.
Work on ATCCTTATCA yielded a switch fluorescence ratio of 1.01.
Work on TATGGCTCTT yielded a switch fluorescence ratio of 0.938.
GGTGTGGAT gave a switch fluorescence ratio of 1.03.
With TACAGTCCGG the switch fluorescence ratio was 1.02.
With CATGTGTTT the switch fluorescence ratio was 0.962.
For ATGGGGACGA, the switch fluorescence ratio was 1.
Work on TGGGTCGCTG yielded a switch fluorescence ratio of 1.02.
For GCTGGAAGCT, the switch fluorescence ratio was 1.13.
GTTAGTTCGC showed a switch fluorescence ratio of 1.04.
ATGGAGTATT showed a switch fluorescence ratio of 0.973.
GGCTCTGACT was tested, and the switch fluorescence ratio was 0.993.
TAAGGCTCTA was tested, and the switch fluorescence ratio was 0.978.
TTTCTTTCTG was tested, and the switch fluorescence ratio was 0.959.
AGATTAGAGC showed a switch fluorescence ratio of 1.03.
TATAAAACGC showed a switch fluorescence ratio of 1.05.
Sequence CTCTAGGGTG has a switch fluorescence ratio of 1.13.
Work on GCGTAATTGT yielded a switch fluorescence ratio of 1.
ATAGTACTGG showed a switch fluorescence ratio of 1.04.
In the case of AAAAGTTTCG, the switch fluorescence ratio is reported as 0.986.
Sequence AAGTGGAATA has a switch fluorescence ratio of 1.
Work on CCGTGGCACG yielded a switch fluorescence ratio of 1.03.
In the case of CTAATATTAC, the switch fluorescence ratio is reported as 1.06.
In the case of GATGTAGTTG, the switch fluorescence ratio is reported as 0.996.
For TATGGAGGCA, the switch fluorescence ratio was 0.986.
AGGTGTGGCA showed a switch fluorescence ratio of 0.986.
Work on GCCTGGAGAT yielded a switch fluorescence ratio of 0.969.
GAGGGTGGT was tested, and the switch fluorescence ratio was 1.07.
With TAAAAGTGG the switch fluorescence ratio was 1.01.
Work on TGACATTCTA yielded a switch fluorescence ratio of 0.98.
For ACGCCCAACC, the switch fluorescence ratio was 1.44.
With TGCTCCTATC the switch fluorescence ratio was 1.15.
TAAATGAATC gave a switch fluorescence ratio of 1.01.
For AACGCGCGGG, the switch fluorescence ratio was 0.984.
In the case of TGGGTTATCC, the switch fluorescence ratio is reported as 1.
Sequence TAGGTCGAAA has a switch fluorescence ratio of 1.01.
In the case of CCTAAGGGAC, the switch fluorescence ratio is reported as 1.07.
For GGCCACAATG, the switch fluorescence ratio was 1.01.
TCTCACAATT was tested, and the switch fluorescence ratio was 1.13.
For GCTCAATAGG, the switch fluorescence ratio was 1.03.
Work on GTCGATCAGG yielded a switch fluorescence ratio of 0.995.
Sequence CTTGACTGGT has a switch fluorescence ratio of 0.984.
AATAGCAG was tested, and the switch fluorescence ratio was 1.03.
In the case of GTAGTAGTAT, the switch fluorescence ratio is reported as 0.991.
CATATGGGC gave a switch fluorescence ratio of 0.99.
TCAAAGCCGA was tested, and the switch fluorescence ratio was 1.02.
CCTGTCCTGT showed a switch fluorescence ratio of 1.03.
TCTATGAGA gave a switch fluorescence ratio of 1.06.
With ATGTTTAATT the switch fluorescence ratio was 0.971.
For TCTGACGCGG, the switch fluorescence ratio was 1.31.
With GTCACTAGGT the switch fluorescence ratio was 0.997.
In the case of GGTCCTCAGC, the switch fluorescence ratio is reported as 1.36.
In the case of CAGCACCGG, the switch fluorescence ratio is reported as 1.13.
With AGGGGTCAA the switch fluorescence ratio was 0.968.
TCGATGAGCC gave a switch fluorescence ratio of 0.971.
For TTCAAGCAGG, the switch fluorescence ratio was 1.03.
For ACATATGTGA, the switch fluorescence ratio was 1.06.
Work on TTTTGCGTGT yielded a switch fluorescence ratio of 1.03.
Sequence AAGGGGATAC has a switch fluorescence ratio of 1.14.
With CTCCTTGAGC the switch fluorescence ratio was 1.09.
In the case of CTCTGACCCT, the switch fluorescence ratio is reported as 1.03.
GGCTCCGGTA was tested, and the switch fluorescence ratio was 1.36.
In the case of ATTTATCACG, the switch fluorescence ratio is reported as 0.996.
ACCAAGCCAC gave a switch fluorescence ratio of 1.22.
Work on CTGGGTTCAT yielded a switch fluorescence ratio of 0.982.
AAAGGGCTA gave a switch fluorescence ratio of 1.01.
Sequence GCGTACTCAG has a switch fluorescence ratio of 1.07.
In the case of ACCCTCTTAT, the switch fluorescence ratio is reported as 1.01.
Work on CGGGCTTAGG yielded a switch fluorescence ratio of 0.998.
ACCGGCGTGG gave a switch fluorescence ratio of 0.996.
AATCTCCAGG gave a switch fluorescence ratio of 1.76.
In the case of TGGTGCGAA, the switch fluorescence ratio is reported as 1.04.
In the case of CGCTTCATCC, the switch fluorescence ratio is reported as 1.72.
